Measurements reported in article PMC8042174.
Where a chain is given by its changes, count along the chain named. Names may count otherwise. Results are given in words; binding and its absence hold for the method and conditions named. In cells and extracts the contact can be indirect. Some entries that bind do so weakly or less than the wild type. Sequences can lack the tags named with a protein. One block for each binder: values may come before it.

Sequences of proteins named here, by UniProt entry; tags and fusion partners are left off.
UniProt P43250: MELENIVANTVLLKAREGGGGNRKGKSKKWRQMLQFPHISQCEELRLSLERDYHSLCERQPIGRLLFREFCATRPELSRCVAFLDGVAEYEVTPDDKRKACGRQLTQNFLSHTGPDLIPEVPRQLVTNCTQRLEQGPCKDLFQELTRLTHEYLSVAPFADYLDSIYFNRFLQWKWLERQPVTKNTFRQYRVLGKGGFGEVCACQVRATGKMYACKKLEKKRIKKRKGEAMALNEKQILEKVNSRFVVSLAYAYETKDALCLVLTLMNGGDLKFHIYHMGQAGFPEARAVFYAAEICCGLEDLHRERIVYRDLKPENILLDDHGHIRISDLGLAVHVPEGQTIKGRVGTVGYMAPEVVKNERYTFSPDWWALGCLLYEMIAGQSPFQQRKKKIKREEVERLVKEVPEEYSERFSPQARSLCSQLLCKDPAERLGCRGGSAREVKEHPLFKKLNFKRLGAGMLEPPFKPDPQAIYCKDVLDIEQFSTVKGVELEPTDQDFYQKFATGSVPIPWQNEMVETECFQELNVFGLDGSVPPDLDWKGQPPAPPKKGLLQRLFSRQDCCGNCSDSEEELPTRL

Experiments:
HA-NPT2A (human) = molecular target: T1, HA-NPT2A (human) (UniProt Q06495); test: co-IP; 293 cells transfected with HA-NPT2A and FLAG-NHERF1 (WT, S162A, S162D)
T1 sequence: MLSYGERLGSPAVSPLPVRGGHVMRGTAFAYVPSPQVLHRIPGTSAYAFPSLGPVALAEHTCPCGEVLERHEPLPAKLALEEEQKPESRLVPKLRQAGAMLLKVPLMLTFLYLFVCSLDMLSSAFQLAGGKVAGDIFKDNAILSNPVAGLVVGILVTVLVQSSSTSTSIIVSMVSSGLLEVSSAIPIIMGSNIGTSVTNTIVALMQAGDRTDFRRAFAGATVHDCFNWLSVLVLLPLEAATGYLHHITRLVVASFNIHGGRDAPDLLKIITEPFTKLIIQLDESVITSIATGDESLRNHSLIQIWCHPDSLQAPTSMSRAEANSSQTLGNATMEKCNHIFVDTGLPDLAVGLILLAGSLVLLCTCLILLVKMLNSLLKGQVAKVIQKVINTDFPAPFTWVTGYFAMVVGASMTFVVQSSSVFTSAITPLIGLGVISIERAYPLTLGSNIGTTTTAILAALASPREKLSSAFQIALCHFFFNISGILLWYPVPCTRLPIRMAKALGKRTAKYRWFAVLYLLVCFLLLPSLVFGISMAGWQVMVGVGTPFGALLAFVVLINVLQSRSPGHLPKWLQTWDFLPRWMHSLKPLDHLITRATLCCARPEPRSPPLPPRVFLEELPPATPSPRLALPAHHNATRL

HA-GFP-NPT2A (human) = molecular target: T2, HA-GFP-NPT2A (human) (UniProt Q06495); test: co-IP; OKH cells transfected with HA-GFP-NPT2A and FLAG-NHERF1 (WT, S162A, S162D)
T2 sequence: T1 sequence

HA-GRK6A (human) = HA-GRK6A (human) (UniProt P43250); test: co-IP; HA-GRK6A cotransfected with FLAG-NHERF1 constructs in OKH cells; lysis in 1% Nonidet P-40, 50 mM Tris, 150 mM NaCl, 5 mM EDTA; which partner was precipitated is not told

B2: FLAG-NHERF1 N1P2-GAGA (protein, UniProt O14745 1-358)
chain: MSADAAAGAPLPRLCCLEKGPNGYGFHLHGEKGKLGQYIRLVEPGSPAEKAGLLAGDRLVEVNGENVEKETHQQVVSRIRAALNAVRLLVVDPETDEQLQKLGVQVREELLRAQEAPGQAEPPAAAEVQGAGNENEPREADKSHPEQRELRPRLCTMKKGPSGAGANLHSDKSKPGQFIRSVDPDSPAEASGLRAQDRIVEVNGVCMEGKQHGDVVSAIRAGGDETKLLVVDRETDEFFKKCRVIPSQEHLNGPLPVPFTNGEIQKENSREALAEAALESPRPALVRSASSDTSEELNSQDSPPKQDSTAPSSTSSSDPILDFNISLAMAKERAHQKRSSKRAPQMDWSKKNELFSNL
binding (HA-GRK6A (human)): binds

B4: FLAG-NHERF1 N1P1P2-GAGA (protein, UniProt O14745 1-358)
chain: B2 chain with Y24A, F26A
binding (HA-GRK6A (human)): no binding

Second part, the binder after the results:

binding (HA-NPT2A (human)): binds | binding (HA-GFP-NPT2A (human)): binds
B1: FLAG-NHERF1 S162A (protein, UniProt O14745 1-358)
chain: B2 chain with S162A, A164Y, A166F

binding (HA-NPT2A (human)): no binding | binding (HA-GFP-NPT2A (human)): no binding
B3: FLAG-NHERF1 S162D (protein, UniProt O14745 1-358)
chain: B2 chain with S162D, A164Y, A166F
